The data scatter; read single values as rough.
B1: Ydj1; a variant is named by its letters at X, in order (parent)
chain: MVKETKFYDILGVPVTATDVEIKKAYRKCALKYHPDKNPSEEAAEKFKEASAAYEILSDPEKRDIYDQFGEDGLSGAGGAGGFPGGGFGFGDDIFSQFFGAGGAQRPRGPQRGKDIKHEISASLEELYKGRTAKLALNKQILCKECEGRGGKKGAVKKCTSCNGQGIKFVTRQMGPMIQRFQTECDVCHGTGDIIDPKDRCKSCNGKKVENERKILEVHVEPGMKDGQRIVFKGEADQAPDVIPGDVVFIVSERPHKSFKRDGDDLVYEAEIDLLTAIAGGEFALEHVSGDWLKVGIVPGEVIAPGMRKVIEGKGMPIPKYGGYGNLIIKFTIKFPENHFTSEENLKKLEEILPPRIVPAIPKKATVDECVLADFDPAKYNRTRASRGGANYDSDEEEQGGEGVQCXXX

Variants of: B1
Experiment: enrichment factor, frequency at 37 °C / frequency at 25 °C (thermotolerance selection) (ratio); higher = more growth at 37 °C, higher likelihood of farnesylation
Settings: with Saccharomyces cerevisiae ydj1Δ (yWS304); selective temperature 37 °C; reference temperature 25 °C

Variant	enrichment factor
DRE	0.162
DRF	0.204
DRD	0.16
DRC	0.121
GRC	0.0991
GRE	0.118
GRD	0.126
GRA	0.146
GRF	0.335
YRC	0.508
YRA	0.177
YRD	0.264
YRE	0.148
YQS	2.18
YQV	3.85
YQY	1.48
YQT	2.46
YQW	1.27
PQV	1.56
PQY	1.67
PQT	1.93

Variant	enrichment factor
PQW	1.65
VRD	0.129
VRC	0.162
VRE	0.085
VRA	0.128
DQV	0.57
DQT	0.352
DQW	0.175
DQY	0.249
KRC	0.167
KRA	0.072
KRD	0.176
KRE	0.207
PRD	0.167
PRC	0.192
PRE	0.146
PRA	0.108
ARA	0.111
ARF	0.899
ARC	0.127
ARD	0.159

Variant	enrichment factor
ARE	0.138
AQW	1.54
AQY	2.06
AQV	1.6
AQT	1.73
ERD	0.0633
ERA	0.0719
ERC	0.159
ERE	0.163
ERF	0.196
SQW	1.5
SQY	2.79
SQV	1.65
SQT	1.78
WQY	1.59
WQT	1.89
WQW	1.74
WQV	1.92
IRA	0.129
IRD	0.102
IRE	0.137

Variant	enrichment factor
IRC	0.0965
MQT	1.88
MQY	1.91
MQV	1.93
MQW	1.32
TRC	0.121
TRD	0.174
TRA	0.0932
TRE	0.0876
WRE	1.25
WRA	1.59
WRC	0.116
WRD	0.72
TQV	2.08
TQY	1.95
TQW	1.63
TQT	1.83
SRD	0.119
SRA	0.205
SRE	0.187
SRC	0.148

Source: the supplement of paper PMC10320760
